According to article PMC7102964:
Results are given in words; binding and its absence hold for the method and conditions named. For part of these data: Binding seen in cells or lysates may run through a third protein. Some results given as binding are weak or reduced against the parent protein; the word gives no strength. For part of these data: Sequences can lack the tags named with a protein.

Amino acid sequences for entries named in this document (tags omitted). Residues count along the entry.
UniProt P43122, residues 31-407: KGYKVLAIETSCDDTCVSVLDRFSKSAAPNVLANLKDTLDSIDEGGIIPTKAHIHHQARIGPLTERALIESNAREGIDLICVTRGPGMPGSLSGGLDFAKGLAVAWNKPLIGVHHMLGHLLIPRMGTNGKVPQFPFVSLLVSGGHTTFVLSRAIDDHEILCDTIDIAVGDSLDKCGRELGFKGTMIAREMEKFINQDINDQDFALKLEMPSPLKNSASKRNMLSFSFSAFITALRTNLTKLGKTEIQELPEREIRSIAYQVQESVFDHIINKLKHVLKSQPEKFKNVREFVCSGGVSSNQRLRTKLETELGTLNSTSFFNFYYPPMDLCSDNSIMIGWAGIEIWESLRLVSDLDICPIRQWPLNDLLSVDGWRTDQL

T1: OSGEPL1 with a C-terminal FLAG tag or a C-terminal Myc tag (human) (UniProt Q9H4B0)
T1 sequence: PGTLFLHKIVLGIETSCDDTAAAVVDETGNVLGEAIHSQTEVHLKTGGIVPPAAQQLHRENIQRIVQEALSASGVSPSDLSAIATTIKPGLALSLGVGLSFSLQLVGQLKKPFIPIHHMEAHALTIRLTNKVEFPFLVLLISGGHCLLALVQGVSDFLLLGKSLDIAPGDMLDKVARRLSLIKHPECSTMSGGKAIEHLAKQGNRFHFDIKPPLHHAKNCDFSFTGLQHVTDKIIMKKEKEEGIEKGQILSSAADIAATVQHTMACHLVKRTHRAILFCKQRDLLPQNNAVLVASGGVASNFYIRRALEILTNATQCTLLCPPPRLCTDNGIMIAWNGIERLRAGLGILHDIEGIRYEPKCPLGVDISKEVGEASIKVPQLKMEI

T2: YrdC with a C-terminal HA tag (human) (UniProt Q86U90)
T2 sequence: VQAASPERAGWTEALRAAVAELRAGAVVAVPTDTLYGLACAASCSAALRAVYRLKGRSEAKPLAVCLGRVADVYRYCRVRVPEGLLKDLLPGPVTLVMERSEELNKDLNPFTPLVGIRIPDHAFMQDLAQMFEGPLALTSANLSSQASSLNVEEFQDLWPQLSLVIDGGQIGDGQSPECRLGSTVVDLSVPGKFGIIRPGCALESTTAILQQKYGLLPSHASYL


What was measured:
[1] = biological target: Qri7 with a C-terminal FLAG tag or a C-terminal Myc tag (yeast) (UniProt P43122); assay: co-IP; differently tagged proteins co-expressed in HEK293T; lysis in 50 mM Tris-HCl pH 7.5, 150 mM NaCl, 5 mM EDTA, 1% Triton X-100; anti-FLAG, anti-HA or anti-Myc antibodies overnight, Dynabeads protein G, washed with PBST; western blot
[2] = biological target: Mature OSGEPL1 (Leu35-Ile414) without the MTS (human) (UniProt Q9H4B0); assay: SEC; purified OSGEPL1 on a Superdex 75 column (HPLC), 50 mM Tris-HCl pH 8.0, 150 mM NaCl, 0.5 ml/min; mass from a calibration with five standard proteins; both purified
[3] = biological target: T1, OSGEPL1 with a C-terminal FLAG tag or a C-terminal Myc tag (human); assay: co-IP; differently tagged proteins co-expressed in HEK293T; lysis in 50 mM Tris-HCl pH 7.5, 150 mM NaCl, 5 mM EDTA, 1% Triton X-100; anti-FLAG, anti-HA or anti-Myc antibodies overnight, Dynabeads protein G, washed with PBST; western blot
[4] = biological target: T2, YrdC with a C-terminal HA tag (human); assay: as above

Row | Molecule | binding [1] | binding [2] | binding [3] | binding [4]
1 | Qri7 with a C-terminal FLAG tag or a C-terminal Myc tag (from UniProt P43122 31-407) (enzyme) | binds | – | – | –
2 | Mature OSGEPL1 (Leu35-Ile414) without the MTS (enzyme, UniProt Q9H4B0 35-414) LHKIVLGIETSCDDTAAAVVDETGNVLGEAIHSQTEVHLKTGGIVPPAAQQLHRENIQRIVQEALSASGVSPSDLSAIATTIKPGLALSLGVGLSFSLQLVGQLKKPFIPIHHMEAHALTIRLTNKVEFPFLVLLISGGHCLLALVQGVSDFLLLGKSLDIAPGDMLDKVARRLSLIKHPECSTMSGGKAIEHLAKQGNRFHFDIKPPLHHAKNCDFSFTGLQHVTDKIIMKKEKEEGIEKGQILSSAADIAATVQHTMACHLVKRTHRAILFCKQRDLLPQNNAVLVASGGVASNFYIRRALEILTNATQCTLLCPPPRLCTDNGIMIAWNGIERLRAGLGILHDIEGIRYEPKCPLGVDISKEVGEASIKVPQLKMEI | – | no binding | – | –
3 | OSGEPL1 with a C-terminal FLAG tag or a C-terminal Myc tag (enzyme, UniProt Q9H4B0 30-414) PGTLFLHKIVLGIETSCDDTAAAVVDETGNVLGEAIHSQTEVHLKTGGIVPPAAQQLHRENIQRIVQEALSASGVSPSDLSAIATTIKPGLALSLGVGLSFSLQLVGQLKKPFIPIHHMEAHALTIRLTNKVEFPFLVLLISGGHCLLALVQGVSDFLLLGKSLDIAPGDMLDKVARRLSLIKHPECSTMSGGKAIEHLAKQGNRFHFDIKPPLHHAKNCDFSFTGLQHVTDKIIMKKEKEEGIEKGQILSSAADIAATVQHTMACHLVKRTHRAILFCKQRDLLPQNNAVLVASGGVASNFYIRRALEILTNATQCTLLCPPPRLCTDNGIMIAWNGIERLRAGLGILHDIEGIRYEPKCPLGVDISKEVGEASIKVPQLKMEI | – | – | no binding | no binding
4 | YrdC with a C-terminal HA tag (enzyme, UniProt Q86U90 56-279) VQAASPERAGWTEALRAAVAELRAGAVVAVPTDTLYGLACAASCSAALRAVYRLKGRSEAKPLAVCLGRVADVYRYCRVRVPEGLLKDLLPGPVTLVMERSEELNKDLNPFTPLVGIRIPDHAFMQDLAQMFEGPLALTSANLSSQASSLNVEEFQDLWPQLSLVIDGGQIGDGQSPECRLGSTVVDLSVPGKFGIIRPGCALESTTAILQQKYGLLPSHASYL | – | – | no binding | no binding
